According to ChEMBL document CHEMBL4888484, “Replenishing the malaria drug discovery pipeline: Screening and hit evaluation of the MMV Hit Generation Library 1 (HGL1) against asexual blood stage Plasmodium falciparum ,using a nano luciferase reporter read-out” (2022):
Out of some 150,000 compounds screened, about 540 (0.36%) showed an effect of 50% or more. The list shows a part of the results.

test system: Plasmodium falciparum; test: Primary screen in NF54 nanoGlo assay, in single point, at 2uM, 72h; a lower Z score goes with more inhibition; format: functional, Erythrocyte; details: timepoint 72 hour

| SMILES | % Inhibition | Z score |
| --- | --- | --- |
| Cc1ncsc1CCC(=O)NCCN1CCNC1=O | 9% | -1.52 |
| CCC(C)C1NC2(CCN(C(=O)Nc3cccc(Cl)c3)CC2)N(CCc2ccc(OC)c(OC)c2)C1=O (stereo not given) | 3% | -0.32 |
| COc1ccc(NC(=O)Cn2cnc3nc(N4CCCC4)ncc3c2=O)c(OC)c1 | 33% | -3.7 |
| Cc1noc(COC(=O)c2ccc(-c3cscn3)cc2)n1 | -10% | 1.84 |
| Cc1cc(NC(=O)N2CCN(C(=O)Cc3c[nH]c4ccccc34)CC2)n(C)n1 | -5% | 0.48 |
| C[C@@H](CNC(=O)C(Cl)(Cl)Cl)OC(=O)Nc1cccc(Cl)c1 | 10% | -1.79 |
| N[C@@H](Cc1ccc(O)cc1)C(=O)N1CCc2[nH]nc(-c3ccccc3F)c2C1 | 10% | -1.39 |
| CCN1C[C@@H](Oc2ccccc2)C[C@H]1C(N)=O | -5% | 0.72 |
| Fc1ccc(COc2ncnc3scc(-c4ccccc4)c23)c(Cl)c1 | -11% | 1.88 |
| CN(C)c1ccccc1N(C)Cc1ccon1 | 2% | -0.36 |
| FC(F)(F)c1ccc(-c2noc(-c3cc4n(n3)C[C@@H](c3ccc5c(c3)OCO5)OC4)n2)cc1 | -4% | 0.41 |
| C[C@H]1CCCN(Cn2nc(C3CC3)sc2=S)CC1 | -2% | 0.26 |
| CCc1nc(N2CCC[C@H](c3nnc(CN4CCCCC4)n3C)C2)no1 | -3% | 0.45 |
| CC[C@H](NC(=O)C1CCOCC1)c1ccc(C)cn1 | 1% | -0.12 |
| O=C(CCNC(=O)N1CC2CC=CCC2C1)NC1CCCC1 (stereo not given) | -5% | 0.53 |
| O=C(O)[C@@H]1C[C@@H](O)CN1CCCCc1ccccc1 | 0% | -0.03 |
| CN(C)c1ccc(C(=O)Nc2ccc(CCc3nc4ccccc4[nH]3)cc2)cc1 | -11% | 1.09 |
| Cc1cccc2oc(CNC(=O)[C@H]3CCC[C@H](O)C3)nc12 | -3% | 0.7 |
| Cc1cc(=O)[nH]c(NC(=N)N2CCc3ccccc32)n1 | -17% | 2.98 |
| COc1ccc(N2CCN(C(=O)Cn3cc(OC)c(=O)cc3CN3CCOCC3)CC2)cc1 | -8% | 0.85 |
| COc1ncccc1C(=O)NCc1nc(-c2cnn(C)c2)no1 | 0% | 0.01 |
| Brc1ccc(-n2cnnn2)c2ncccc12 | 3% | -0.41 |

| SMILES | % Inhibition | Z score |
| --- | --- | --- |
| Cc1ccc(C)c(OCC(=O)N[C@H]2CCCC[C@@H]2NC(=O)COc2cc(C)ccc2C)c1 | -6% | 0.69 |
| CN1CCC2(CCCN(C(=O)C(=O)c3ccco3)CC2)CC1 | -8% | 1.16 |
| CCc1ccc(NC(=O)N2CCC(N(Cc3ccc(C)cc3)C(=O)CN(CCOC)S(=O)(=O)c3ccccc3)CC2)cc1 | 6% | -0.81 |
| O=S(=O)(N1CCCCCC1)N1CCC[C@H]1c1ccccc1 | 2% | -0.34 |
| O=S(=O)(NC[C@](O)(c1ccsc1)c1cccs1)c1cccnc1 | -11% | 1.73 |
| CNC(=O)COc1c(Br)cccc1Br | -27% | 3.12 |
| CCCCCC(=O)Nc1nnc(-c2ccc3c(c2)OCO3)s1 | 7% | -0.83 |
| Cc1cc(C)c2[nH]c(C(=O)N(CCO)Cc3nccs3)c(C)c2c1 | -3% | 0.57 |
| CCCCc1nn(CC(=O)NC)c(=O)n1Cc1ccccc1 | -17% | 1.48 |
| CC(C)[C@H](CNC(=O)c1ccccc1OCc1ccncc1)c1ccccc1 | -1% | 0.15 |
| Cc1ccc(CN2CCCn3nc(C(=O)N(C)CC(=O)NCC4CC4)cc3C2=O)cc1 | -25% | 2.24 |
| CC[C@H](C)N(CC(=O)N1CCN(c2ccc(-c3ccc(OC)c(OC)c3)nn2)CC1)C(=O)c1ccc(Cl)cc1 | 0% | 0.01 |
| O=C1C[C@H](Cc2ccc(NCC3=Cc4ccccc4OC3)cc2)C(=O)N1 | 5% | -0.75 |
| COc1ccc(N2C(=O)C3ON(c4ccccc4)C(c4cccnc4)C3C2=O)cc1 (stereo not given) | -6% | 0.97 |
| Cc1csc(CN(C)C[C@H]2CCS(=O)(=O)C2)n1 | 28% | -3.15 |
| O=C(NC1CCCC1)N1CCC[C@H](C(=O)N2CCc3[nH]ncc3C2)C1 | -5% | 0.8 |
| COc1ccccc1-c1noc([C@@H]2CCCN2C(=O)c2ccsc2)n1 | 5% | -0.79 |
| O=C(NCCC(F)(F)F)NC[C@H]1CC[C@@H](c2ccccc2)O1 | -1% | 0.15 |
| O=C(c1ccsc1)N1CCCC[C@H]1c1nc(-c2cccnc2)no1 | -8% | 0.88 |
| N#C[C@@H](NC(=O)c1c[nH]c2ncccc12)c1cccc(Cl)c1 | -5% | 0.94 |
| CCCO[C@H]1CCCN(C(=O)c2ccsc2S(N)(=O)=O)CC1 | 2% | -0.29 |
| CC1(C)CN(C(=O)c2nn(-c3cccc(F)c3)c3c2CCC3)C[C@@]2(CCOC2)O1 | 1% | -0.11 |

| SMILES | % Inhibition | Z score |
| --- | --- | --- |
| Cc1ccc2ccc3cc(C(=O)Nc4ccc(C)c(F)c4)[nH]c3c2n1 | 9% | -1.54 |
| C[C@]1(O)CCN(c2cc(N)ncn2)C[C@H]1Cc1ccccc1 | -4% | 0.71 |
| C#CCN(CC#CC)Cc1csc(C)n1 | -4% | 0.6 |
| FC(F)(F)c1cnccc1N1CCc2[nH]ncc2C1 | -11% | 0.97 |
| c1ccc(-c2nnc[nH]2)c(OCc2noc3c2CCCC3)c1 | -3% | 0.42 |
| c1cnc(-c2ccn(-c3cncnc3)n2)cn1 | -3% | 0.48 |
| CC(C)CCn1ncc(NC(=O)NC2CC(O)C2(C)C)c1C(C)C (stereo not given) | -7% | 0.91 |
| Cn1ncnc1NC(=O)c1sccc1OC(F)F | -1% | 0.1 |
| CCS(=O)(=O)N1CCN(Cc2ccc(OC)nc2)CC1 | -7% | 0.88 |
| COCC1(CC(=O)N2CC(c3nc(-c4ccccc4)no3)C2)CC1 | -2% | 0.23 |
| COCC(=O)NCCCc1ccc(Br)cc1F | -11% | 1.61 |
| CCc1noc(COc2nc(C(C)(C)C)no2)n1 | -13% | 1.32 |
| Cc1cccnc1C[C@H](C)NC(=O)Cn1nnnc1CN1CCCC1 | -3% | 0.37 |
| COc1ccc(CN2CC[C@H](N3CCC(CO)CC3)C2=O)cc1 | -3% | 0.58 |
| O=c1c2cnccc2ncn1[C@@H]1COC2(CCCCC2)C1 | -2% | 0.42 |
| Cn1ccc([C@@H]2CCCCN2C(=O)c2ccc3sccc3c2)n1 | -17% | 1.97 |
| O=C(CNC(=O)c1ccsc1)Nc1cc(C(F)(F)F)ccc1O | -9% | 1.48 |
| COc1ccc(CN2C[C@H]3CN(Cc4ccc(S(C)(=O)=O)cc4)CCN3C2=O)cc1 | 11% | -1.3 |
| C[C@H]1c2ccc(F)cc2CCN1S(=O)(=O)c1cccnc1 | -9% | 1.56 |
| Cc1c(F)c(F)c(CN2CCOC2=O)c(F)c1F | 1% | -0.16 |
| CCC(C)[C@H](NS(=O)(=O)c1ccc(C)cc1)C(=O)N1CCC(C(=O)NC2(C(=O)O)CCCCC2)CC1 (stereo not given in full) | -13% | 1.66 |
| CN(CCCc1nccn1C)C(=O)Cn1ccc2ccccc21 | -4% | 0.67 |

| SMILES | % Inhibition | Z score |
| --- | --- | --- |
| CCOC(=O)[C@H]1CCCN(C(=O)c2nc(C3CCC3)oc2C)C1 | 0% | 0.03 |
| CC1(C#N)CN(C(=O)NCC(F)(F)F)C1 | 5% | -0.67 |
| Cc1cnc(C(=O)Nc2ncc(Cc3cccc4ccccc34)s2)cn1 | -11% | 1.41 |
| COc1ccc(N2CCCN(Cc3ccccc3)C2=O)c(NC(=O)Cc2ccc(F)cc2)c1 | 0% | 0.02 |
| CCN(CCCN1CCCC1)S(=O)(=O)c1cnc(C)c(C#N)c1 | 3% | -0.52 |
| CCC1CC(NC(=O)NC2CCCN(C)C2=O)CCO1 (stereo not given) | -3% | 0.63 |
| CCC1CCN(C(=O)Cc2cnoc2)CC1 | -5% | 1.07 |
| CC1(C)C(=O)NC(=O)N1CC(=O)OCc1cccc2cccnc12 | -7% | 0.97 |
| CS(=O)(=O)N1C[C@H]2CC[C@@H](C1)N(C(=O)c1ccc(Cl)cc1O)C2 | -13% | 2.36 |
| Nc1ccc(Oc2nc3ccccc3s2)c(Cl)c1 | -8% | 1.55 |
| CCN(CC)CC[C@H]1CN(C(=O)c2ccc(N(C)C)cc2)CC[C@H]1CC(=O)O | 2% | -0.25 |
| CCCCNC(=O)Nc1cccc(C#CCO)n1 | -11% | 1.08 |
| COc1ccc(C2CC(O)(C#Cc3ccccc3)C(C)C(c3ccc(OC)cc3)N2)cc1 (stereo not given) | -8% | 0.74 |
| CN(C(=O)c1cccs1)c1cccc2ncccc12 | 5% | -0.5 |
| CN(C)c1ccc(NC(=O)c2cn(C)nn2)cc1 | 1% | -0.21 |
| Cn1nnc2c(C(=O)N3CCC(C(F)F)CC3)ccnc21 | 5% | -0.7 |
| COc1ccccc1N1CCN(C(=O)c2ccc(CN3C(=O)COc4ccc(C(C)(C)C)cc43)cc2)CC1 | 1% | -0.14 |
| COCCNC(=O)CCc1c(-c2ccc(Cl)cc2)nc2ccc(-c3ccccc3)cn12 | -3% | 0.62 |
| CCc1cc(C(=O)N2CCC[C@@]3(CCCO3)CC2)cc(=O)[nH]1 | -5% | 0.47 |
